Consider 40 compounds from PubChem BioAssay (NCI).

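Step 1: Grow cells in 96-well plates. Step 2: Expose to compound for 48 hours at 5 concentrations. Step 3: Interpolate endpoints linearly; if unreached, use highest concentration. At the GI50, growth is halved. TGI is the concentration that stops growth completely.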

The experiment concerns NCI-H322M lung. Kind of experiment: NCI anticancer screen, dose series, 48 h.
The compound `Cc1ccc(S(=O)(=O)N/N=C2\CC3C4CCC3C2C4)cc1` (stereo unspecified) displayed a TGI of over 100 µM. Still for that read-out and setting: the result for `CC(C)C(=O)CP(=O)(O)O` reads over 100 µM; that for `O=Cc1ccc2[nH]c(=O)oc2c1`, over 100 µM; that for `COC(=O)C(=O)C(C(=O)C(=O)Nc1nc(=S)[nH][nH]1)c1nc2ccc([N+](=O)[O-])cc2[nH]c1=O` (stereo unspecified), over 100 µM. Same read-out and setting: the result for `CC(C)(C)c1cc2c(O)c(c1)COCc1cc(C(C)(C)C)cc(c1O)COCc1cc(C(C)(C)C)cc(c1O)COC2` reads over 100 µM; that for `O=C1NC(=O)C2(CCc3ccc(N(CCCl)CCCl)cc32)N1` (stereo unspecified), over 100 µM.

`O=C(CC(C(=O)c1cccs1)c1ccccc1)c1ccccc1O` (stereo unspecified) returned a TGI of over 100 µM.

For the compound `O[C@H]1[C@@H]2OC[C@@H](O)[C@H](OCc3ccccc3)[C@@](COCc3ccccc3)(O2)[C@@H]1OCc1ccccc1`, the TGI was found to be 30.3 µM. As to `O=C1C=C(OCC=C(Cl)Cl)C(=O)c2ccccc21`, the GI50 is over 100 µM and the TGI was over 100 µM.

Take `N#CC12CC3(CCC1CCC1(C2)OCCO1)OCCO3` (stereo unspecified): the TGI was over 100 µM. The same measure, in the same setting: then `NC(=O)N=Nc1c2ccccc2n2[nH]ccc12`, with over 100 µM. With `CC1(C)N=C(N)N=C(N)N1c1ccc(CCC(=O)Nc2cccc(S(=O)(=O)F)c2)cc1`, the GI50 is 2.78 µM and the TGI amounted to 26.5 µM. Take `NC(N)=NC(N)=NCc1ccco1`: the GI50 is 832 µM and the TGI is over 1250 µM. On to `C[C@H](CCCOS(C)(=O)=O)[C@H]1CC[C@H]2[C@@H]3CC[C@@H]4C[C@H](OS(C)(=O)=O)CC[C@]4(C)[C@H]3CC[C@]12C`, for which the GI50 is 2250 µM. Regarding `C=C1CC(CC(=O)C(C)CC2CC(=C)C(=O)O2)OC1=O` (stereo unspecified), the TGI is over 100 µM. With `C=C(C)COC(=O)COCC(=O)OCC(=C)C`, the TGI was over 100 µM. Same read-out and setting: the result for `CC(=O)c1cccc(NC(=O)/C(=N\NC(=S)NN)C2C(=O)Nc3ccccc3S2=O)c1` (stereo unspecified) reads over 100 µM. For the compound `O=[N+]([O-])c1ccc2nc(=S)[nH]n2c1`, the TGI is over 100 µM.

Consider `C/C(CC(O)(C(F)(F)F)C(F)(F)F)=N/Nc1ccc([N+](=O)[O-])cc1[N+](=O)[O-]`, for which the TGI was over 10 µM. For `NC(=S)N=Nc1c(O)[nH]c2ccccc12`, the GI50 was 274 µM and the TGI is over 1000 µM.

For `COc1ccc(CNC(=O)c2c(C)n([O-])c3cc(F)c(F)cc3[n+]2=O)cc1`, the GI50 is 15.5 µM and the TGI worked out at 29 µM. Consider `COC1=CC(=O)C2C(C1=O)[C@@H]1c3ccccc3OC[C@H]21` (stereo partly specified), for which the TGI was over 100 µM.

`COc1ccc(-c2cc(-c3ccccc3)nc(N)n2)c(O)c1` showed a TGI of over 100 µM. Same read-out and setting: then `COc1c(OC2OC(CO)C(O)C(O)C2O)cc2c(c1OC)-c1ccc(OC)c(=O)cc1[C@@H](NC(C)=O)CC2` (stereo partly specified), with over 100 µM. As to `CN/N=C(/CC(=O)c1sc(NNC(C)=O)nc1C)C(=O)Nc1ccc(OC)cc1OC`, the TGI is over 100 µM. On the same count and under the same terms, then `CCNC(CCCC(NCC)P(=O)(O)O)P(=O)(O)O` (stereo unspecified), with over 100 µM; and `CC1(C)N=C(N)N=C(N)N1CCCCc1ccccc1`, with over 100 µM; and `NNC(=O)N/N=C1/C(=O)N(c2ccc(Cl)c(Cl)c2)C(=O)C(=O)C1c1nc2ccccc2o1` (stereo unspecified), with over 100 µM. Same read-out and setting: then `CCOC(=O)c1c(CN2CCOCC2)n(Cc2ccccc2)c2c1cc(O)c1nc(C)c(C)nc12`, with over 100 µM; and `O=C(N1CCN(c2ccccc2)CC1)N(C(=O)C1(c2ccc(Cl)cc2)CCCC1)S(=O)(=O)c1ccccc1`, with 82.7 µM. For the compound `COc1cc[nH]c1/C=C1\C(=O)Nc2ccc([N+](=O)[O-])c(N3CC[C@@H](O)C3)c21`, the GI50 is 0.46 µM and the TGI came to 2.5 µM. In turn, `CC1(C)O[C@@H](CP(c2ccc3ccccc3c2)c2ccc3ccccc3c2)[C@H](CP(c2ccc3ccccc3c2)c2ccc3ccccc3c2)O1` yielded a TGI of over 100 µM. Consider `CC(C)[C@H]1NC(=O)[C@H]2N=C(O[C@@H]2C)[C@@H]2CCCN2C(=O)[C@H](Cc2ccccc2)NC(=O)[C@@H]2COC(=N2)[C@@H](Cc2ccccc2)NC(=O)[C@@H]2COC1=N2`, for which the TGI is over 100 µM. On the same count and under the same terms, then `COC(=O)c1c(OC(C)=O)ccc2c1c1cc3ccccc3c(OC(C)=O)c1n2C`, with over 100 µM; and `Nc1c(O)c(C(=O)O)cc2ccccc12`, with 38.3 µM. On the same count and under the same terms, the result for `COc1ccccc1NC1=NCC(C)S1` (stereo unspecified) reads over 100 µM; that for `Cc1cc2nc3c(C#N)c4c(c(Nc5ccc(Cl)cc5)n3c2cc1C)CCC4`, over 100 µM; that for `O=C(OCc1ccccc1)c1ccccc1-c1c2ccc(=O)cc-2oc2cc(OCc3ccccc3)ccc12`, over 100 µM. Same read-out and setting: then `Cc1cc(C)nc(NS(=O)(=O)c2ccc(NC(=O)c3ccc4nc5ccccc5c(Nc5ccc(S(=O)(=O)Nc6nc(C)cc(C)n6)cc5)c4c3)cc2)n1`, with over 100 µM; and `COc1cc(OC)cc(Oc2nc3c(N)cc(C(F)(F)F)cc3nc2-c2ccccc2)c1`, with over 100 µM.
